{"source": "PubChem BioAssay AID504339", "about": "(National Center for Advancing Translational Sciences (NCATS), 2011)", "note": "Screen size: about 390,000 compounds; about 17,000 (4.4%) were called active. This list was built around the results that the source calls inconclusive (neither active nor inactive); the mix of calls is not that of the screen. Calls come from the whole dose curve; as a rule, active = well fitted inhibition curve with a large enough effect; inconclusive = small, poorly fitted or top-dose-only effect; inactive = no such curve, though single readings can be large or run the other way. Where the call is inconclusive, the potency comes from a doubtful curve fit."}
{"target": "Lysine-specific demethylase 4A (Homo sapiens) (UniProt O75164)", "sequence (O75164 whole entry, looked up, the tested form may be a part)": "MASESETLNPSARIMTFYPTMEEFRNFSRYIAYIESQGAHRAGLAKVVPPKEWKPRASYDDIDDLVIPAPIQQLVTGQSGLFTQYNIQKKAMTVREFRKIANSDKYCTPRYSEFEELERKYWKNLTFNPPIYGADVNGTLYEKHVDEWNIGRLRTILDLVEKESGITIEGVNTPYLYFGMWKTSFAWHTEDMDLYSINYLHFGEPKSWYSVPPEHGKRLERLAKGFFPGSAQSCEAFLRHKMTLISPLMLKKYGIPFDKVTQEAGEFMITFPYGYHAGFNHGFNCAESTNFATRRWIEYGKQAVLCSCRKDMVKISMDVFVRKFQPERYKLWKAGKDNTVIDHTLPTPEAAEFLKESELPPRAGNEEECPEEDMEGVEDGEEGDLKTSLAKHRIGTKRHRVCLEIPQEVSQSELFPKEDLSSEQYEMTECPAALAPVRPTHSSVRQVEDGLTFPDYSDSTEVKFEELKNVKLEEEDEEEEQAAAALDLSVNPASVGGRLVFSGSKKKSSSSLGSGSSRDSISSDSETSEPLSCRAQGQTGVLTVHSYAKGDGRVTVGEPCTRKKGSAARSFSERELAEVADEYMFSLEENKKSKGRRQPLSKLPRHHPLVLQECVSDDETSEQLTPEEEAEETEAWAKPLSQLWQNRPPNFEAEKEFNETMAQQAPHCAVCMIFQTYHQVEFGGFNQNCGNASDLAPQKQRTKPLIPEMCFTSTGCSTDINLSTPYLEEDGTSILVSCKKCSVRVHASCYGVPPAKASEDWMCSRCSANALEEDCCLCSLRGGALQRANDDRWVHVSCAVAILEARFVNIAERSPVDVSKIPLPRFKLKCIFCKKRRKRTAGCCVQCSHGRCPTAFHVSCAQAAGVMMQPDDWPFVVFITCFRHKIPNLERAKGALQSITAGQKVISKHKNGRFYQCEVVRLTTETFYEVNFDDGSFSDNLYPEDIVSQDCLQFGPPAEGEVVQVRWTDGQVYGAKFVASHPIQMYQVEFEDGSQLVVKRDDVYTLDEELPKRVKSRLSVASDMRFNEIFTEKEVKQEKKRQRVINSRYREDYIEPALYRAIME", "test": "qHTS Assay for Inhibitors of JMJD2A-Tudor Domain; note: nearly all actives have a fitted effect of over 50% in size; note: potency is the fitted concentration of half-maximal effect; tags give direction and shape of the fitted curve; for activity change, negative = inhibition: % is set by controls: 0 for no effect and ±100 for the full control effect", "settings": "AlphaScreen JMJD2A-Tudor / H3K4me3 peptide binding; activity change, negative = inhibition: at 114 µM (top of the series)"}
{"molecule": "CN1CCN(c2ccccc2NC(=O)C(Cc2ccccc2)n2cccc2)CC1", "note": "(centres undefined)", "Potency": "inconclusive: 50.1 µM [inhibitor, partial curve]"}
{"molecule": "COc1ccnc(CS(=O)c2nc3cc(C(O)(F)F)ccc3[nH]2)c1OC", "note": "(centres undefined)", "Potency": "active: 79.4 µM"}
{"molecule": "COc1cc(C(=O)NC2CCCc3ccccc32)cc(OC)c1OC", "note": "(centres undefined)", "activity change, negative = inhibition": "inactive: -12.7%"}
{"molecule": "CCN1CCN(c2ccc(S(=O)(=O)N3CCCCC3)cc2NC(=O)c2ccc(C)c(C)c2)CC1", "Potency": "inconclusive: 39.8 µM [inhibitor, partial curve]"}
{"molecule": "Oc1ccc(/C=N/n2cnn(Cc3ccccc3Cl)c2=S)c(O)c1", "Potency": "inconclusive: 22.4 µM [inhibitor, single point]"}
{"molecule": "COc1ccc(Cl)cc1NCCC(O)c1ccc(F)cc1", "note": "(centres undefined)", "Potency": "inconclusive: 50.1 µM [inhibitor, partial curve]"}
{"molecule": "Nc1ccc(O)cc1C(=O)OCC(=O)c1ccc(C2CCCCC2)cc1", "Potency": "inconclusive: 25.1 µM [inhibitor, partial curve]"}
{"molecule": "O=C(CC(Sc1ccc(Br)cc1)C(=O)O)c1ccc(F)cc1", "note": "(centres undefined)", "activity change, negative = inhibition": "inactive: 19.8%"}
{"molecule": "CN(C)CCNC(=O)c1c(O)c2c([nH]c1=O)CCCC2", "activity change, negative = inhibition": "inactive: -13.2%"}
{"molecule": "CC1(C)CC(N2CCN(c3ccccc3)CC2)=CC(=[N+]2CCCC2)C1", "Potency": "inconclusive: 56.2 µM [inhibitor, partial curve, poor fit]"}
{"molecule": "CCOC(=O)c1c(S(=O)(=O)NCCCc2ccco2)c(C)n(C)c1C", "Potency": "inconclusive: 44.7 µM [inhibitor, partial curve]"}
{"molecule": "Cc1cc(C)cc(N(CC(=O)N2CCCCCC2)S(C)(=O)=O)c1", "activity change, negative = inhibition": "inactive: -1.37%"}
{"molecule": "C/C(=C\\C(=O)c1ccccc1)Nc1ccc(O)cc1", "Potency": "inconclusive: 50.1 µM [inhibitor, partial curve]"}
{"molecule": "COc1ccc(N2CCN(CCCNC(=O)c3ccc4nc(N5CCCCC5)sc4c3)CC2)cc1", "Potency": "active: 44.7 µM"}
{"molecule": "C=CCc1ccccc1OCCNCc1ccccc1", "Potency": "active: 0.891 µM"}
{"molecule": "Cc1[nH]n(C2=NCCS2)c(=O)c1N=Nc1cccc(C(F)(F)F)c1", "Potency": "inconclusive: 14.1 µM [inhibitor, full curve]"}
{"molecule": "CCN(CC)c1ccc(NC(=O)C2CCCN(S(=O)(=O)c3cnc[nH]3)C2)c(C)c1", "note": "(centres undefined)", "Potency": "inconclusive: 56.2 µM [inhibitor, partial curve]"}
{"molecule": "O=C(O)c1ccc(NC(=S)NC(=O)c2cccnc2)cc1", "activity change, negative = inhibition": "inactive: -2.08%"}
{"molecule": "O=[N+]([O-])c1ccc(/C=N/NC(=S)Nc2ccccc2F)o1", "Potency": "inconclusive: 50.1 µM [inhibitor, partial curve]"}
{"molecule": "Cc1ccc(N2C(=O)N(Cc3cccc(Cl)c3)c3ccccc3S2(=O)=O)cc1", "activity change, negative = inhibition": "inactive: 5.79%"}
{"molecule": "NNc1nc(-c2ccccc2)cc(-c2ccccc2O)n1", "Potency": "inconclusive: 50.1 µM [inhibitor, partial curve]"}
{"molecule": "COc1cc(/C=C(/C#N)c2nc3ccccc3[nH]2)ccc1Oc1ncccc1[N+](=O)[O-]", "Potency": "inconclusive: 79.4 µM [inhibitor, partial curve]"}
{"molecule": "O=C(CCNC(=O)c1ccccc1)NN=Cc1ccc(Br)o1", "Potency": "inconclusive: 63.1 µM [inhibitor, partial curve, poor fit]"}
{"molecule": "CCCOC(=O)c1c(-c2ccc(C)cc2C)csc1NC(=O)C1C2CCC(O2)C1C(=O)O", "note": "(centres undefined)", "Potency": "active: 70.8 µM"}
{"molecule": "CC(=O)Oc1ccc(/C=N/NC(=S)Nc2ccccc2)cc1", "Potency": "inconclusive: 70.8 µM [inhibitor, single point]"}
{"molecule": "CCCSc1ncc(Cl)c(C(=O)N2CCN(c3ccc(OC)cc3)CC2)n1", "Potency": "inconclusive: 39.8 µM [inhibitor, partial curve]"}
{"molecule": "Oc1ccc(-c2nc(-c3ccc(O)c(O)c3)cs2)cc1", "Potency": "active: 50.1 µM"}
{"molecule": "Nc1ccc(-c2c3ccc(=O)cc-3oc3cc(O)ccc23)cc1C(=O)O", "Potency": "inconclusive: 89.1 µM [inhibitor, partial curve]"}
{"molecule": "CC1(c2ccc(OC(F)F)cc2)NC(=O)N(CC(=O)NCCC2=CCCCC2)C1=O", "note": "(centres undefined)", "activity change, negative = inhibition": "inactive: -13%"}
{"molecule": "CCc1ccccc1NC(=O)CSc1nc2c(c(=O)[nH]1)CN(Cc1ccccc1OC)CC2", "activity change, negative = inhibition": "inactive: 4.64%"}
{"molecule": "CC(C)(C)NC(=O)C(c1ccc(-c2ccccc2)cc1)N(C[C@H]1CC[C@@H]([C@@H]2CC[C@H](CO)O2)O1)C(=O)c1cccc(Cl)c1", "note": "(some centres undefined)", "activity change, negative = inhibition": "inactive: -33.3%"}
{"molecule": "COc1ccc2nc(N3C(=O)C(O)=C(C(=O)c4ccco4)C3c3ccco3)sc2c1", "note": "(centres undefined)", "Potency": "active: 0.794 µM"}
{"molecule": "Cc1c(C)n(Cc2ccc(F)cc2)c2ccc(C(=O)N3CCN(c4ccccn4)CC3)cc12", "Potency": "inconclusive: 11.2 µM [inhibitor, full curve]"}
{"molecule": "COc1ccc(OC)c(/C=N/NC(=O)c2ccc[n+](CC(=O)c3ccccc3)c2)c1", "Potency": "inconclusive: 39.8 µM [inhibitor, full curve, poor fit]"}
{"molecule": "CCC(=O)OC1(C)C(=O)C=C2C=C(c3ccc(C#N)cc3)OC=C2C1=O", "note": "(centres undefined)", "Potency": "inconclusive: 56.2 µM [inhibitor, partial curve, poor fit]"}
{"molecule": "CCOC(=O)C(C)On1c(-c2ccc(Cl)cc2)nc2ccc([N+](=O)[O-])cc21", "note": "(centres undefined)", "Potency": "inconclusive: 56.2 µM [inhibitor, partial curve]"}
{"molecule": "COc1ccc(-n2c(CNC(=O)c3ccc(S(=O)(=O)N4CCCC4)cc3)n[nH]c2=S)cc1", "Potency": "active: 7.94 µM"}
{"molecule": "Cc1oc2c(c1C(=O)c1ccccc1)C(=O)C(=O)c1ccccc1-2", "Potency": "inconclusive: 56.2 µM [inhibitor, partial curve]"}
{"molecule": "CN[C@H](CC(=O)O)C(=O)O", "Potency": "active: 22.4 µM"}
{"molecule": "O=C(COc1ccccc1[N+](=O)[O-])Nc1cccc(C(=O)Nc2ccccc2C(=O)O)c1", "Potency": "inconclusive: 79.4 µM [inhibitor, partial curve]"}
{"molecule": "CCCn1nnnc1NC(=O)COc1ccc(Br)cc1", "Potency": "inconclusive: 22.4 µM [inhibitor, single point]"}
{"molecule": "Cc1cccc(N2CCN(C(=S)c3ccc(-c4ccccc4[N+](=O)[O-])o3)CC2)c1", "Potency": "active: 8.91 µM"}
{"molecule": "COc1ccc(CCn2c(C)cc(C(=O)CCl)c2C)cc1OC", "Potency": "inconclusive: 50.1 µM [inhibitor, partial curve]"}
{"molecule": "CC1CC(N(C(=O)c2ccco2)c2ccccc2)c2ccccc2N1C(=O)c1ccco1", "note": "(centres undefined)", "activity change, negative = inhibition": "inactive: -31.8%"}
{"molecule": "CCOc1ccc(CCN2C(=S)N([C@@H](CC(C)C)CN3CCCC3CN3C(=S)NC[C@@H]3CC(C)C)C[C@@H]2CC(C)C)cc1", "note": "(some centres undefined)", "Potency": "inconclusive: 10 µM [inhibitor, full curve]"}
{"molecule": "CCc1c(C)c(C#N)c2[nH]c3ccccc3n2c1=S", "Potency": "active: 5.62 µM"}
{"molecule": "CCOC(=O)/C(C#N)=C/c1c(N2CCN(c3ccc(OC)cc3)CC2)nc2c(C)cccn2c1=O", "Potency": "inconclusive: 8.91 µM [inhibitor, full curve]"}
{"molecule": "Cc1c(CCOC(=O)c2cc([N+](=O)[O-])cc([N+](=O)[O-])c2)sc[n+]1CC(=O)c1ccc(Br)cc1", "Potency": "inconclusive: 39.8 µM [inhibitor, partial curve]"}
{"molecule": "COc1cccc(C(=O)N(Cc2cccnc2)c2nc3c(OC)ccc(C)c3s2)c1OC", "Potency": "inconclusive: 35.5 µM [inhibitor, full curve, poor fit]"}
{"molecule": "CC(C)c1ccc(NC(=S)NNC(=O)c2cccnc2)cc1", "activity change, negative = inhibition": "inactive: -24.2%"}
{"molecule": "O=C(C[n+]1ccccc1)N1CCCc2ccccc21", "activity change, negative = inhibition": "inactive: 15.9%"}
{"molecule": "COc1ccccc1OCCSc1nc2ccc([N+](=O)[O-])cc2s1", "Potency": "inconclusive: 39.8 µM [inhibitor, single point]"}
{"molecule": "CCn1cnc2cc(NCc3ccc(Cl)cc3)ccc21", "Potency": "inconclusive: 89.1 µM [inhibitor, partial curve]"}
{"molecule": "CN1CCC(CN)(N2CCN(c3ccccc3)CC2)CC1", "Potency": "inconclusive: 44.7 µM [inhibitor, partial curve, poor fit]"}
{"molecule": "O=C(CN1C(=O)/C(=C/c2cccc(Br)c2)SC1=S)NCCCN1CCOCC1", "Potency": "inconclusive: 100 µM [inhibitor, partial curve, poor fit]"}
{"molecule": "CCCCN1CC(=O)N2[C@H](c3ccc(Cl)cc3)[C@@H]3C(=O)N(CC)C(=O)[C@@H]3[C@]2(Cc2ccccc2)C1=O", "activity change, negative = inhibition": "inactive: -3.57%"}
{"molecule": "CN(C)CCn1c(=O)n(Cc2ccco2)c(=O)c2c3c(sc21)CCCCC3", "Potency": "inconclusive: 63.1 µM [inhibitor, partial curve]"}
{"molecule": "COc1cccc(CNC(=O)CCn2nc(C)c3c(C)n(-c4ccccc4)nc3c2=O)c1", "activity change, negative = inhibition": "inactive: -10%"}
{"molecule": "COc1cc(C#Cc2c(-c3cncn3C)n(C)c3ccc(Br)cc23)cc(OC)c1", "Potency": "inconclusive: 25.1 µM [inhibitor, single point]"}
{"molecule": "O=C(CN1CCN(c2ccc(Cl)cc2)CC1)Nc1cccc(F)c1", "Potency": "inconclusive: 63.1 µM [inhibitor, partial curve, poor fit]"}
{"molecule": "N#CC(C(=O)OCc1ccccc1)c1nc2ccccc2nc1N1CCOCC1", "note": "(centres undefined)", "Potency": "inconclusive: 79.4 µM [inhibitor, partial curve]"}
{"molecule": "Cc1cc(C)cc(NC(=O)Cn2c(=O)n(-c3cc(C)cc(C)c3)c(=O)c3oc4ccccc4c32)c1", "activity change, negative = inhibition": "inactive: -17.2%"}
{"molecule": "O=S(=O)(Nc1ccc(N2CCOCC2)cc1)c1ccc(F)cc1", "activity change, negative = inhibition": "inactive: -17.2%"}
{"molecule": "NC(=O)C1CCN(c2ncnc3c2c(-c2ccccc2)cn3-c2ccccc2)CC1", "Potency": "inconclusive: 39.8 µM [inhibitor, partial curve]"}
{"molecule": "NC(=S)Nc1cc(Cl)cc(Cl)c1", "activity change, negative = inhibition": "inactive: -12.5%"}
{"molecule": "Cc1ccccc1Nc1nc(N)nc(CN2CCN(c3ccccn3)CC2)n1", "Potency": "active: 56.2 µM"}
{"molecule": "CC(C)OCCOc1ccc2oc(-c3ccco3)cc(=O)c2c1", "Potency": "inconclusive: 44.7 µM [inhibitor, partial curve]"}
{"molecule": "CCC(=O)N1COC[C@@H]1Cc1ccccc1", "activity change, negative = inhibition": "inactive: -13.9%"}
{"molecule": "COCCn1c(C)cc(C(=O)CSc2cc(C)c3ccc(OC)cc3n2)c1C", "Potency": "inconclusive: 39.8 µM [inhibitor, single point]"}
